Source: the RNAGym collection of RNA variant scans (doi:10.7554/elife.90254)
Read counts are not given, so values of variants with three or more changes are uncertain.

B1: LINE1-full (parent)
chain: UACGUAGGUGGUUUUCCCCUGAUAGUGCUAAGGGGGCCUGGAAGUUUGGACUGGGCAGAGCUCAACACAGCGUGGCAAAGUGGCUGUGGCUAGACUGCCUCUCUGGAUUCCUCGUCACUCAGCAGGGCAUCUCUGAGAGAAAUGCC

Variants of: B1
Assay: self-cleavage, relative activity (ratio to wild type); higher = more cleavage; in vitro, sequencing; the parent is a self-cleaving ribozyme

Row | Variant | self-cleavage
1 | UACGUAGGUGGUUUUCCCCUGAUAGUGCUAAGGGGGCCUGGAAGGUUGGACUGGGCAGAGCUCAACACAGCGUGACAAAGUGGCAGUGGCUAGACUGCCUCUCUGGAUUCCUCGUCACUCAGCAGGGCAUCUCUGAGAGAAAUGCC | 0.08
2 | UACGUAGGUGGUUUUCCCCUGAUAGUGCUAAGGGGGCCUGGAAGGUUGGACUGGGCAGAGCUCAACACAGCGUGGCAAAGUGGCUGUGUCUAGACUGCCUCUCUGGAUUCCUCGUCACUCAGCAGGGCAUCUCUGAGAGAAGUGCC | 0.03
3 | UACGUAGGUGGUUUUCCCCUGAUAGUGCUAAGGGGGCCUGGAAGGUUGGACUGGGCAGAGCUCAACACAGCGAGGCAAAGUGGCUGUGGCUAGACUGCCUCUCUGGAUUCCUCGUCACUCAGCAGGGCAUCCCUGAGAGGAAUGCC | 1.76
4 | UACGUAGGUGGUUUUCCCCUGAUAGUGCUAAGGGGGCCUGGAAGGUUGGACUGGGCAGAGCUCAACACAGCGUGGCAAAGUGGCAGUGGCUAGACUGCCUCUCUGGACUCCUCGUCACUCAGCAGGGCAUCUCUGAGAGAAAUGCC | 0.21
5 | UACGUAGGUGGUUUUCCCCUGAUAGUGCUAAGGGGGCCUGGAAGGUUGGACUGGGCAGAGCUCAACACAGCGUGGCAAAGUGGCGGUGGCUAGACAGCCUCUCUGGAUUCCUCGUCACUCAGCAGGCCUUCUCUGAGAGAAAUGCC | 0.02
6 | UACGUAGGUGGUUUUCCCCUGAUAGUGCUAAGGGGGCCUGGAAGUAUGGGCUGGGCAGAGCUCAACACAGCGUGGCAAAGUGGCUGUGGCUAGACUGCCUCUCUGGAUUCCUCGUCACUCAGCUGGCCAUCUCUGAGAGAAAUGCC | 1.42
7 | UACGUAGGUGGUUUUCCCCUGAUAGUGCUAAGGGGGCCUGGAAGUAUGGACUGGGCAGUGCUCAACGCAGCGUGGCAAAGUGGCUGUGGCUAGACUGCCUCUCUGGGUUCCUCGUCACUCAGCAGGGCAUCUCUGGGGGAAAUGCC | 0
8 | UACGUAGGUGGUUUUCCCCUGAUAGUGCUAAGGGGGCCUGGAAGUAUGGACUGGGCAGAGCUCCACACAGCGUGGCAAAGUGGCUGUGGCUAGACUGCCUCUCUGGAUUCCUCGUCUCUCUGCAGGGCGUCUCUGAGAGAAAUGCC | 0.33
9 | UACGUAGGUGGUUUUCCCCUGAUAGUGCUAAGGGGGCCUGGAAGUAUGGACUGGGCAGAGCUCGACACAGCGUGGCAAAGUGGCUGUGGCUAGACUGCCUCUCUGGAUUCCUCGUCACCCUGCAGGGCAUCUCUGAGAGGAAUGCC | 0.42
10 | UACGUAGGUGGUUUUCCCCUGAUAGUGCUAAGGGGGCCUGGAAGUAUGGACUGGGCAGAGCUCAACGCAGCGUGGCAAAGUGGCUGUGGCUAGACUGCCUCUCUGGAUUCCUCGUCACUCAACAGGGCAUCUCUGAGAGAAAUGCC | 0.04
11 | UACGUAGGUGGUUUUCCCCUGAUAGUGCUAAGGGGGCCUGGAAGUAUGGACUGGGCAGAGCUCAACACGGCGUGGCAAAGUGGCUGUGGCUAGACUGCCUCUCUGGAUUCCUCGUCACUCAGCAGGGCAUCUCUGAGAGGAAUGCC | 0.39
12 | UACGUAGGUGGUUUUCCCCUGAUAGUGCUAAGGGGGCCUGGAAGUAUGGACUGGGCAGAGCUCAACACGGCGUGGCAAAGUGGCUGUGGCUAGACUGCCUCCCUGGAUUCCUCGUCACUCAGCAGGGCAUCCCUGAGAGAAAUGCC | 0.27
13 | UACGUAGGUGGUUUUCCCCUGAUAGUGCUAAGGGGGCCUGGAAGUAUGGACUGGGCAGAGCUCAACACAGCGUGGCAAGGUGGCUGUGGCUAGACUGCCUCUCUGGAUUCCUCGUCACUCAGCAGGGCAUCACUGAGAGAAAUGCC | 1.25
14 | UACGUAGGUGGUUUUCCCCUGAUAGUGCUAAGGGGGCCUGGAAGUAUGGACUGGGCAGAGCUCAACACAGCGUGGCAAAGUGGCUGUGGCUGGACAGCCUCUCUGGAUUCCUCGUCACUCAGCAGGGCAUCUCUGAGAGAAAUGCC | 0.1
15 | UACGUAGGUGGUUUUCCCCUGAUAGUGCUAAGGGGGCCUGGAAGUAUGGACUGGGCAGAGUUCAACACAGCGUGGCAAAGUGGCUGUGGCUAGACUGCCUCUCUGGAUUCCUCGUCACUCAGCAGGGCAUCUCUGAGAGAGAUGCC | 0.04
16 | UACGUAGGUGGUUUUCCCCUGAUAGUGCUAAGGGGGCCUGGAAGUAUGGACUGGGCAGAGCUCAACACAGUGUGGCAAAGUGGUUGCGGCUAGACUGCCUCCCUGGAUUCCUCGCCACUCAGCAGGGCAUCUCUGAGAGAAAUGCC | 0.03
17 | UACGUAGGUGGUUUUCCCCUGAUAGUGCUAAGGGGGCCUGGAAGUAUGGACUGGGCAGAGCUCAACACAGCGUGGCAAAGUGGCUGUGGCUAGAUUGCCUCUCUGGAUUCCUCGUCACUCAGCAGGGCACCUCUGAGAGAAAUGCC | 0.4
18 | UACGUAGGUGGUUUUCCCCUGAUAGUGCUAAGGGGGCCUGGAAGUAUGGACUGGGCAGAGCUCAACACAGCGUGGCAAAGUGGCUGUGGCUAGACUGCCUCUCUGGAUUCCUCGUCACUCAGUAGGGCAUCUCUGUGAGAAAUGCC | 0.97
19 | UACGUAGGUGGUUUUCCCCUGAUAGUGCUAAGGGGGCCUGGAAGUAAGGACUGGGCAGAGCUCAACACAGCGUGGCAAAGUGGCUGUGGCUAGACAGCCUCUCAGGAUUCCUCGCCACUCAGCAGGGCAUCUCUGAGAGAAAUGCC | 0.05
20 | UACGUAGGUGGUUUUCCCCUGAUAGUGCUAAGGGGGCCUGGAAGUAAGGACUGGGCAGAGCUCAACACAGCGUGGCAAAGUGGCUGUGGCUAGACUGCCUCUCUGGAUUCCUCGUCACUCAGCAGGGCAUCUCUGAGAGAAACGCC | 1.27
